Data published in the supplement of paper PMC10126150.
Sequences with one replicate were seen in a single cluster, so their values are uncertain.

Each sequence was assayed on ATP (assay: switch fluorescence ratio, 500 uM ATP over buffer (Cy3 cluster intensity, sum of 5 cycles each) (fold (ratio)); higher = stronger signal-on switching upon ATP binding; sequences stand for … in TCGTCGGCAGCGTCAGATGTGTATAAGAGACAGTTTTTTTTTTTTTTTTTTTTTTTTT…TC). Details: aptamer strand: ATP DNA aptamer (quencher-CACCTGGGGGAGTATTGCGGAGGAAGG + anchor), 100 nM annealed; ATP concentration: 500 uM; one replicate.
How it was run: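 Five buffer/ATP imaging cycles were run on Cy3-labelled switching-strand clusters on a modified Illumina MiSeq flow-cell, with NaOH stripping and re-annealing between cycles. In each cycle, clusters annealed to 100 nM quencher-labelled ATP aptamer were imaged in selection buffer, then after 15 min with 500 uM ATP at 22 °C. Per cluster, the fluorescence ratio is summed target-cycle over summed buffer-cycle Cy3 intensity, averaged per switch-domain sequence. Only clusters within 100-1000 RFU were kept.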
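Further: ATP exposure 15 min at 22 °C before imaging.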

Question: For GTGGCACGTT, which switch fluorescence ratio is on record?
Answer: Its switch fluorescence ratio is 0.933.

Question: Which switch fluorescence ratio does the source give for GCTTATGATA here?
Answer: Its switch fluorescence ratio is 1.03.

Question: How did the switch fluorescence ratio turn out when ACAATTACTG was run?
Answer: The switch fluorescence ratio was 1.01.

Question: How did the switch fluorescence ratio turn out when AAGATATCAC was run?
Answer: The switch fluorescence ratio was 1.08.

Question: With AGAACGTGGG as the sequence, how does the switch fluorescence ratio read?
Answer: Its switch fluorescence ratio is 0.955.

Question: Which switch fluorescence ratio does the source give for CCGGGGATAG here?
Answer: Its switch fluorescence ratio is 1.98.

Question: Which switch fluorescence ratio does the source give for TTAATTAGTA here?
Answer: Its switch fluorescence ratio is 0.999.

Question: How did the switch fluorescence ratio turn out when ACCAGGGCGA was run?
Answer: Its switch fluorescence ratio is 1.08.

Question: With AGATACACGG as the sequence, how does the switch fluorescence ratio read?
Answer: The switch fluorescence ratio was 1.08.

Question: How did the switch fluorescence ratio turn out when GCGGGAAATG was run?
Answer: Its switch fluorescence ratio is 1.05.

Question: With TCAGGATTT as the sequence, how does the switch fluorescence ratio read?
Answer: Its switch fluorescence ratio is 0.996.

Question: AATCCTATGG was tested. Which switch fluorescence ratio did it give?
Answer: Its switch fluorescence ratio is 1.03.

Question: ATATCGTGTA was tested. Which switch fluorescence ratio did it give?
Answer: The switch fluorescence ratio was 1.02.

Question: For CGATCTCGAG, which switch fluorescence ratio is on record?
Answer: The switch fluorescence ratio was 1.

Question: How did the switch fluorescence ratio turn out when GTAAAGTACG was run?
Answer: Its switch fluorescence ratio is 1.13.

Question: How did the switch fluorescence ratio turn out when CTCCGGAGAT was run?
Answer: The switch fluorescence ratio was 1.04.

Question: With GAGACGGACA as the sequence, how does the switch fluorescence ratio read?
Answer: Its switch fluorescence ratio is 1.2.

Question: How did the switch fluorescence ratio turn out when GTTGTTAGAC was run?
Answer: The switch fluorescence ratio was 0.962.

Question: With ACTAGAGCAT as the sequence, how does the switch fluorescence ratio read?
Answer: The switch fluorescence ratio was 1.1.

Question: TTTACTTACA was tested. Which switch fluorescence ratio did it give?
Answer: The switch fluorescence ratio was 1.42.

Question: How did the switch fluorescence ratio turn out when AGTCATCTGG was run?
Answer: Its switch fluorescence ratio is 1.

Question: How did the switch fluorescence ratio turn out when CGGAAGACAA was run?
Answer: Its switch fluorescence ratio is 1.16.

Question: How did the switch fluorescence ratio turn out when AAACAACTAC was run?
Answer: Its switch fluorescence ratio is 1.09.

Question: For TCGCCGCCGG, which switch fluorescence ratio is on record?
Answer: Its switch fluorescence ratio is 1.05.

Question: Which switch fluorescence ratio does the source give for CGATGAGGAA here?
Answer: Its switch fluorescence ratio is 0.99.

Question: How did the switch fluorescence ratio turn out when CCCTTGGGTA was run?
Answer: The switch fluorescence ratio was 1.04.

Question: Which switch fluorescence ratio does the source give for GGAGCCAGTT here?
Answer: The switch fluorescence ratio was 1.05.

Question: With CACATTCGGT as the sequence, how does the switch fluorescence ratio read?
Answer: Its switch fluorescence ratio is 1.

Question: With GTAGTGCCTG as the sequence, how does the switch fluorescence ratio read?
Answer: The switch fluorescence ratio was 0.994.

Question: With CTGCGGTTCG as the sequence, how does the switch fluorescence ratio read?
Answer: Its switch fluorescence ratio is 1.05.

Question: With GTTCGGAATG as the sequence, how does the switch fluorescence ratio read?
Answer: The switch fluorescence ratio was 1.03.

Question: How did the switch fluorescence ratio turn out when TTTACATAGA was run?
Answer: Its switch fluorescence ratio is 0.985.

Question: AAATTGGGAC was tested. Which switch fluorescence ratio did it give?
Answer: The switch fluorescence ratio was 0.98.

Question: Which switch fluorescence ratio does the source give for TGACAGGGG here?
Answer: Its switch fluorescence ratio is 1.05.

Question: With GTCAACATGA as the sequence, how does the switch fluorescence ratio read?
Answer: The switch fluorescence ratio was 1.01.

Question: CGTAAACATA was tested. Which switch fluorescence ratio did it give?
Answer: The switch fluorescence ratio was 1.02.

Question: How did the switch fluorescence ratio turn out when TAACTGCCCC was run?
Answer: The switch fluorescence ratio was 1.24.

Question: TAGGTGATCT was tested. Which switch fluorescence ratio did it give?
Answer: The switch fluorescence ratio was 1.04.

Question: GAGGACTTG was tested. Which switch fluorescence ratio did it give?
Answer: The switch fluorescence ratio was 1.09.

Question: CAAAAGTGAG was tested. Which switch fluorescence ratio did it give?
Answer: Its switch fluorescence ratio is 0.998.

Question: TTAAGATTAT was tested. Which switch fluorescence ratio did it give?
Answer: Its switch fluorescence ratio is 0.975.

Question: For CTCGGGCTTG, which switch fluorescence ratio is on record?
Answer: Its switch fluorescence ratio is 0.958.

Question: Which switch fluorescence ratio does the source give for ATGCG here?
Answer: The switch fluorescence ratio was 1.06.

Question: AATGCCATCG was tested. Which switch fluorescence ratio did it give?
Answer: The switch fluorescence ratio was 1.01.

Question: TCGCGGGGCT was tested. Which switch fluorescence ratio did it give?
Answer: Its switch fluorescence ratio is 1.05.

Question: How did the switch fluorescence ratio turn out when CATGAAAGAT was run?
Answer: Its switch fluorescence ratio is 0.971.

Question: Which switch fluorescence ratio does the source give for CTGTCAGTTA here?
Answer: Its switch fluorescence ratio is 1.03.

Question: How did the switch fluorescence ratio turn out when TCGCTGGGGA was run?
Answer: Its switch fluorescence ratio is 1.04.

Question: With CTAGTATTGT as the sequence, how does the switch fluorescence ratio read?
Answer: The switch fluorescence ratio was 0.995.

Question: How did the switch fluorescence ratio turn out when GGGAGCGTCA was run?
Answer: Its switch fluorescence ratio is 1.02.

Question: For TTAAGAGCCC, which switch fluorescence ratio is on record?
Answer: Its switch fluorescence ratio is 1.

Question: AGAAACTTCG was tested. Which switch fluorescence ratio did it give?
Answer: Its switch fluorescence ratio is 1.01.

Question: Which switch fluorescence ratio does the source give for AGTGGGTGCA here?
Answer: The switch fluorescence ratio was 0.988.

Question: CAGATGAGCG was tested. Which switch fluorescence ratio did it give?
Answer: The switch fluorescence ratio was 0.997.

Question: Which switch fluorescence ratio does the source give for CGTGACTTTA here?
Answer: Its switch fluorescence ratio is 1.09.

Question: How did the switch fluorescence ratio turn out when CCCGGTAAAA was run?
Answer: The switch fluorescence ratio was 0.979.

Question: Which switch fluorescence ratio does the source give for CCCGTCAGTG here?
Answer: Its switch fluorescence ratio is 1.32.

Question: With CTCGATTGCG as the sequence, how does the switch fluorescence ratio read?
Answer: Its switch fluorescence ratio is 0.987.

Question: CTCATGTGGG was tested. Which switch fluorescence ratio did it give?
Answer: Its switch fluorescence ratio is 0.965.

Question: Which switch fluorescence ratio does the source give for AGCGGCTTAA here?
Answer: Its switch fluorescence ratio is 0.977.

Question: With GGAGTCGTGT as the sequence, how does the switch fluorescence ratio read?
Answer: Its switch fluorescence ratio is 1.

Question: ACTGGAGACA was tested. Which switch fluorescence ratio did it give?
Answer: Its switch fluorescence ratio is 1.08.

Question: For GGAATTTACG, which switch fluorescence ratio is on record?
Answer: Its switch fluorescence ratio is 1.04.

Question: How did the switch fluorescence ratio turn out when ATATAGGAAC was run?
Answer: The switch fluorescence ratio was 1.01.

Question: With TTGTGGATGT as the sequence, how does the switch fluorescence ratio read?
Answer: Its switch fluorescence ratio is 0.957.

Question: TCCGAGAAAC was tested. Which switch fluorescence ratio did it give?
Answer: Its switch fluorescence ratio is 1.79.

Question: For GATGGAGCGG, which switch fluorescence ratio is on record?
Answer: Its switch fluorescence ratio is 0.983.

Question: How did the switch fluorescence ratio turn out when CGTCTTTATG was run?
Answer: The switch fluorescence ratio was 0.981.

Question: Which switch fluorescence ratio does the source give for GGAGATTACC here?
Answer: The switch fluorescence ratio was 1.01.

Question: Which switch fluorescence ratio does the source give for GATGCTAGGG here?
Answer: The switch fluorescence ratio was 1.

Question: TTCGTGAAAT was tested. Which switch fluorescence ratio did it give?
Answer: Its switch fluorescence ratio is 1.01.

Question: Which switch fluorescence ratio does the source give for AGATAGCACT here?
Answer: Its switch fluorescence ratio is 1.06.

Question: AATATAAGGC was tested. Which switch fluorescence ratio did it give?
Answer: The switch fluorescence ratio was 1.12.

Question: For ACAAGCTGCA, which switch fluorescence ratio is on record?
Answer: Its switch fluorescence ratio is 1.01.

Question: Which switch fluorescence ratio does the source give for CTTTTGCCAT here?
Answer: Its switch fluorescence ratio is 2.72.

Question: ACCGTACTCG was tested. Which switch fluorescence ratio did it give?
Answer: Its switch fluorescence ratio is 1.44.

Question: For TCGTGCTATG, which switch fluorescence ratio is on record?
Answer: Its switch fluorescence ratio is 1.03.

Question: For CAGTAGATCG, which switch fluorescence ratio is on record?
Answer: The switch fluorescence ratio was 1.02.

Question: How did the switch fluorescence ratio turn out when ATAGCCCGAC was run?
Answer: The switch fluorescence ratio was 1.09.

Question: For AGTTTATGAG, which switch fluorescence ratio is on record?
Answer: The switch fluorescence ratio was 1.02.

Question: For ACCGCAACT, which switch fluorescence ratio is on record?
Answer: The switch fluorescence ratio was 4.26.

Question: AGCTGTTTGA was tested. Which switch fluorescence ratio did it give?
Answer: The switch fluorescence ratio was 1.04.

Question: TATACGTCGG was tested. Which switch fluorescence ratio did it give?
Answer: Its switch fluorescence ratio is 1.02.

Question: Which switch fluorescence ratio does the source give for ACAGGTGCTG here?
Answer: Its switch fluorescence ratio is 1.11.

Question: With CTTTGCACGG as the sequence, how does the switch fluorescence ratio read?
Answer: The switch fluorescence ratio was 1.08.
